Results from PubChem BioAssay AID360 (National Center for Advancing Translational Sciences (NCATS), 2006).
Among all 48,000 compounds or so, about 550 (1.1%) were called active. Not shown: some 4% with an inconclusive outcome. Cut-off read from the data, not from the text of the source: active = potency below about 15 µM; inconclusive = mostly about 16 µM to 33 µM; inactive = weaker than that. The list shows a part of the results.

The compounds below were run against Lysosomal acid glucosylceramidase (Homo sapiens) (UniProt P04062) (assay: Glucocerebrosidase). Conditions: purified enzyme, resorufin glucoside fluorescence (screen aimed at inhibitors), 20 min; series mostly up to 77 µM.
Chain of UniProt P04062 (P04062 whole entry, looked up): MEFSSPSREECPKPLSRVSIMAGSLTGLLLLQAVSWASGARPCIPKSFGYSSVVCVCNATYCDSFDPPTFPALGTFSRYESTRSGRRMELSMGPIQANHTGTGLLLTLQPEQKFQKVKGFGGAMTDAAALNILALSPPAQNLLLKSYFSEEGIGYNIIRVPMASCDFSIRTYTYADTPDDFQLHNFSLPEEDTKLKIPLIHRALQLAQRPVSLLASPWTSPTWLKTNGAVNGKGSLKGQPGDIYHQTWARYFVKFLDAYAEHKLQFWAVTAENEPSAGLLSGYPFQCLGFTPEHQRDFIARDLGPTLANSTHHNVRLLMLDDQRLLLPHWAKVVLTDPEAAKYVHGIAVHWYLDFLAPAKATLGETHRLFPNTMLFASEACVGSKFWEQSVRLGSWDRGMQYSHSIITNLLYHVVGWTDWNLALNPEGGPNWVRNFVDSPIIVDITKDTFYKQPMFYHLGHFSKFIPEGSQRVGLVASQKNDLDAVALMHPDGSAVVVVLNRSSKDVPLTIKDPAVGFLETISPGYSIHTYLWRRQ
How it was run: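 Compounds titrated against 0.2 nM normal enzyme, 30 uM resorufin beta-D-glucopyranoside substrate, citrate/phosphate buffer with taurocholate and tween-20, pH 5.9. Reaction ran 20 min at room temperature; fluorescence (Ex 548/Em 600) gave AC50.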
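Note: the screen sought inhibitors.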
Potency is the fitted concentration of half-maximal effect.

Potency, active:
CC(=O)c1sc2nc(-c3cccs3)cc(C(F)(F)F)c2c1N 13.5 µM

Potency, inactive:
COCc1nc2ccccc2n1Cc1ccccc1 > 76.9 µM
Cc1ccc(S(=O)(=O)N2CCCCC2)cc1C(=O)Nc1ncn[nH]1 > 76.9 µM
Fc1ccc(CSc2ncnc3c2oc2ccccc23)cc1
CCCNCc1cc(OCC)c(OCC(N)=O)cc1Br > 76.9 µM
Cc1noc(C)c1C(=O)N1CCN(c2ncccn2)CC1 > 76.9 µM
O=C(OC1CCOC1=O)c1ccc(S(=O)(=O)N2CCCCCC2)cc1 (stereo unspecified) > 76.9 µM
CC1CN(c2nc3ccccc3nc2C(C#N)C(=O)NCc2ccc3c(c2)OCO3)CC(C)O1 (stereo unspecified) > 76.9 µM
CCOC(=O)c1c(C)[nH]c(C(=O)COC(=O)c2ccncc2)c1C > 76.9 µM
O=C(c1ccccc1)c1cc2ccccc2o1 > 76.9 µM
CSc1cccc(NC(=O)C2CCCN(S(=O)(=O)c3ccc(F)cc3)C2)c1 (stereo unspecified) > 76.9 µM
CCOC(=O)C1CCCN(C/C(O)=C(\C#N)c2nc(-c3ccccc3)cs2)C1 (stereo unspecified) > 76.9 µM
O=C(CCc1nc2ccccc2s1)N1CCN(S(=O)(=O)c2cccs2)CC1 > 76.9 µM
Cc1c(-c2cccs2)[n+](=O)c2c(n1[O-])CCC2 > 76.9 µM
O=C(O)CCC(=O)c1cccc2ccccc12 > 76.9 µM
CSc1nc2c(c(=O)n1-c1ccc(F)cc1)SCC2 > 76.9 µM
CCOC(=O)C1=C(C)NC(=O)C(C#N)C1c1ccco1 (stereo unspecified) > 76.9 µM
CSc1ncccc1C(=O)OCc1ccccc1F > 76.9 µM
CC(=O)c1c(C)[nH]c(C(=O)OC2CCOC2=O)c1C (stereo unspecified) > 76.9 µM
O=C(Cn1nnc2c(cnn2-c2ccccc2)c1=O)N1CCN(c2ccccc2F)CC1 > 76.9 µM
CCOc1ccccc1Nc1nnc(Cc2ccccc2Cl)c(=O)[nH]1 > 76.9 µM
CCCNC(=O)CC1Sc2ccccc2NC1=O (stereo unspecified) > 76.9 µM
CCCn1c(SCC(=O)Nc2c(C)cccc2C)nnc1C(C)C > 76.9 µM
O=C(NCc1cccnc1)C1CCN(C(=O)c2ccc(Cl)cc2Cl)CC1 > 76.9 µM
O=C(Nc1ccccn1)N1CCOCC1 > 76.9 µM
O=C(NC(=Nc1ccccc1)N1CCOCC1)Nc1ccccc1 > 76.9 µM
COc1ccc(S(=O)(=O)N(C)CC(=O)Nc2ccccc2SC)cc1 > 76.9 µM
CC1=C(C(=O)N2CCOCC2)C(c2ccccc2F)C2=C(CC(C)(C)CC2=O)N1 (stereo unspecified) > 76.9 µM
CCOC(=O)C1CCCN(Cc2ccccc2F)C1 (stereo unspecified) > 76.9 µM
CCOC(=O)C1CCN(S(=O)(=O)c2ccc3c(c2)CCCN3C(C)=O)CC1 > 76.9 µM
Cc1noc(C)c1COc1cccc(C(=O)OCCOc2ccc(F)cc2)c1 > 76.9 µM
Cc1ccccc1OC(C)c1nc(-c2ccccc2)no1 (stereo unspecified) > 76.9 µM
O=C(CSc1nnc(-c2ccncc2)n1-c1ccc(F)cc1)NC(=O)NCc1ccco1 > 76.9 µM
CCCn1c(N)c(C(=O)CN2CCN(S(=O)(=O)c3cccs3)CC2)c(=O)[nH]c1=O > 76.9 µM
COc1ccc(-c2noc(CCCC(=O)NCCc3ccccc3)n2)cc1OC > 76.9 µM
O=c1[nH]c(C2CCCN(S(=O)(=O)c3ccccc3)C2)nc2c1nnn2Cc1ccccc1F (stereo unspecified)
CN(CC(=O)NCc1ccc(Cl)cc1)S(=O)(=O)c1cccc2nsnc12 > 76.9 µM
CC(C)c1ccc(OCc2nc(-c3ccccn3)no2)c(Br)c1 > 76.9 µM
CN(C)c1ccc(NC(=O)CN2CCN(CC(=O)Nc3ccc(F)cc3)CC2)cc1 > 76.9 µM
Cn1c2c(c(=O)n(C)c1=O)CN(Cc1ccc(F)cc1)CN2 > 76.9 µM
COc1ccc(N2CCn3c2nc2c3c(=O)n(CCCc3ccccc3)c(=O)n2C)c(OC)c1 > 76.9 µM
NC(=O)c1ccsc1NC(=O)COC(=O)c1ccccc1NCc1ccco1 > 76.9 µM
COc1ccccc1CNc1nc2ccccc2n1CCN1CCCCC1 > 76.9 µM
Cc1cc(NC(=O)COc2ccc(N(C)S(=O)(=O)c3ccccc3)cc2)no1 > 76.9 µM
CCN(CC)S(=O)(=O)c1ccc2c(c1)c(=O)c(C(=O)N1CCc3ccccc3C1)cn2C > 76.9 µM
N=c1cc(C2(O)CCCCC2)n2c(nc3ccccc32)s1 > 76.9 µM
CCc1nnc(SCC(=O)Nc2ccccc2)nc1CC > 76.9 µM
CCOc1cc(C2C(C(=O)OC)=C(C)N=C3SCCC(=O)N32)ccc1OC(C)=O (stereo unspecified) > 76.9 µM
COC(=O)C1=C(C)N=c2s/c(=C/c3ccoc3)c(=O)n2C1c1ccccc1 (stereo unspecified) > 76.9 µM
Cc1ccc(CN2CCC(C(=O)NCCC(C)C)CC2)o1 > 76.9 µM
O=[n+]1cc(-c2ccc(F)cc2)n([O-])c2c1CCC2 > 76.9 µM
COC(=O)c1c(-c2ccc(OC)c(OC)c2)csc1N > 76.9 µM
Cc1c(NC(=O)c2cc(-c3cccs3)on2)c(=O)n(-c2ccccc2)n1C > 76.9 µM
Cc1ccc2occ(C(c3nnnn3Cc3ccccc3)N3CCOCC3)c(=O)c2c1 (stereo unspecified) > 76.9 µM
C=CCn1c(SCC(N)=O)nnc1-c1cc(Br)ccc1O > 76.9 µM
COc1ccc(CCNC(=O)c2c(O)c3cccc4c3n(c2=O)CC4)cc1OC > 76.9 µM
CCN1CCCC1Cn1cnc2c([nH]c3cccc(Cl)c32)c1=O (stereo unspecified) > 76.9 µM
CCOC(=O)C(C(=O)OCC)C(C#N)c1ccccc1 (stereo unspecified) > 76.9 µM
CCOC(=O)c1c(C)oc2c1c(C(c1ccncc1)N1CCOCC1)c(O)c1ccccc12 (stereo unspecified) > 76.9 µM
Cc1c(C(=O)OCC2CCCO2)[nH]c2c1C(=O)CC(c1ccco1)C2 (stereo unspecified) > 76.9 µM
O=C(COC(=O)C1(c2ccccc2F)CCCC1)NC1CCS(=O)(=O)C1 (stereo unspecified) > 76.9 µM
COc1cc2c(=O)n(CCCN3CCOCC3)c(=S)[nH]c2c(OC)c1OC > 76.9 µM
O=C(OCCCc1ccncc1)c1ccc(S(=O)(=O)N2CCOCC2)cc1 > 76.9 µM
O=S(=O)(Nn1cnnc1)c1ccccc1Cl > 76.9 µM
Cc1cc(N2CCCCC2)n2nc(C)c(-c3ccccc3)c2n1 > 76.9 µM
CCn1c(Cn2nnc(-c3ccccc3)n2)nnc1SCC(=O)Nc1cccc(C(C)=O)c1 > 76.9 µM
CN(C1CCS(=O)(=O)C1)S(=O)C12CC3CC(CC(C3)C1)C2 (stereo unspecified) > 76.9 µM
COc1cccc(OC)c1C(=O)N1CC(C)OC(C)C1 (stereo unspecified) > 76.9 µM
CC1CCCCN1C(=O)CSc1nnc(-c2ccco2)n1CC1CCCO1 (stereo unspecified) > 76.9 µM
c1ccn(-c2ncnc3sc4c(c23)CCCC4)c1 > 76.9 µM
O=c1ccn(Cc2ccccc2)c(=O)n1Cc1ccccc1 > 76.9 µM
COc1ccc(CNc2nc3ccccc3n2CCN2CCCCC2)c(OC)c1 > 76.9 µM
CCC(C)NC(=O)CSC1=Nc2ccccc2C2=NC(CC(=O)NCc3ccccc3)C(=O)N12 (stereo unspecified) > 76.9 µM
Cc1ccccc1NC(=O)CN(c1ccc(F)cc1)S(C)(=O)=O > 76.9 µM
COc1ccc(CCNc2nc(N3CCOCC3)nc(N3CCOCC3)n2)cc1OC > 15.4 µM
C=C(C)CSc1nncn1/N=C/c1ccc(OC)cc1 > 76.9 µM
COc1cc(NS(=O)(=O)c2ccc(NC(=O)c3ccco3)cc2)nc(OC)n1 > 76.9 µM
O=C(Cc1nc2ccccc2[nH]1)NCc1ccco1 > 76.9 µM
Cc1cc(C)n2nc3ccccc3c2n1 > 76.9 µM
CC(=O)c1cc(-c2ccccc2)[nH]c1N1CCOCC1 > 76.9 µM
COc1cc(C(c2nnnn2C(C)(C)C)N2CCN(C)CC2)cc(OC)c1OC (stereo unspecified) > 76.9 µM
CCCCC(=O)NCCc1ccc(S(N)(=O)=O)cc1 > 76.9 µM
Cc1ccc(C(=O)NCC(=O)O)cc1S(=O)(=O)N1CCCCC1 > 76.9 µM
O=C(c1cccn2c(=O)c3ccccc3nc12)N1CCN(Cc2ccc3c(c2)OCO3)CC1 > 76.9 µM
COc1cc(NC(=O)c2ccc(-c3ccc(Br)cc3)o2)ccc1NC(=O)C(C)C > 76.9 µM
Cc1nn(-c2ccccc2)c2sc(C(=O)N(CC(=O)NC3CCCC3)Cc3ccco3)cc12 > 76.9 µM
O=C(O)CCC(=O)CCC(=O)c1ccccc1 > 76.9 µM
Cc1cc(NS(=O)(=O)c2ccc(NC(=O)CCN3C(=O)c4ccccc4C3=O)cc2)no1 > 76.9 µM
CC(C)CNC(=O)c1ccccc1NC(=O)CN(c1ccc2c(c1)OCCO2)S(C)(=O)=O > 76.9 µM
CCOc1ccccc1NC(=O)CSc1nnc(-c2ccccn2)n1Cc1ccco1 > 76.9 µM
COc1ccc(C2=NOC3(CC(=O)N(c4ccc(C)cc4)C3=O)C2)c(OC)c1 (stereo unspecified) > 76.9 µM
